# Assay results published in paper PMC10800076.
# Protein sequences, listed by entry. Tags and fused reporters are not part of them. Residues count along the entry.
# UniProt P25311, residues 21-298: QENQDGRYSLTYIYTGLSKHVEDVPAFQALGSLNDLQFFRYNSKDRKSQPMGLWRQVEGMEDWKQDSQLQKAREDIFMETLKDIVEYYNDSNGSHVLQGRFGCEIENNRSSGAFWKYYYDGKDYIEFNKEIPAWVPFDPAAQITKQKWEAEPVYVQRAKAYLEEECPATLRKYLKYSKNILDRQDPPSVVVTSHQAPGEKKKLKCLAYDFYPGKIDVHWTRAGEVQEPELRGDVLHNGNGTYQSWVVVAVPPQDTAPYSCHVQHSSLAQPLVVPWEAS
# No constants are given. Whether binding was seen depends on the method and setting. In cells and extracts the contact can be indirect. Some binding calls cover weakened binding; strength is not graded here. For part of these data: Tags and fused reporters may be left off the sequences shown.
# T1: MIIP in HepG2 and T47-D cells (endogenous or transfected not shown) (human) (UniProt Q5JXC2)
# T1 sequence: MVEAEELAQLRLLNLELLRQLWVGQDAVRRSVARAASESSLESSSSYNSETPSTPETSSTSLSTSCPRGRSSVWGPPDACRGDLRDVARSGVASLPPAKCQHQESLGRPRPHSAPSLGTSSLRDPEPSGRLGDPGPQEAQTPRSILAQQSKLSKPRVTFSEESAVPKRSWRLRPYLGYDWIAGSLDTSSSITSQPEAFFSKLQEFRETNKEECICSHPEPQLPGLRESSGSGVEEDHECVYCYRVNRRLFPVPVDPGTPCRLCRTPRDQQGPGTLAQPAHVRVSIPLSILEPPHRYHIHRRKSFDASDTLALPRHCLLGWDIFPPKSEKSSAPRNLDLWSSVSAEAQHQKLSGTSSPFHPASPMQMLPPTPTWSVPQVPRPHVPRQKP
# T2: MIIP-Flag (migration and invasion inhibitory protein, from pCMV-MIIP-Flag) (human) (UniProt Q5JXC2)
# T2 sequence: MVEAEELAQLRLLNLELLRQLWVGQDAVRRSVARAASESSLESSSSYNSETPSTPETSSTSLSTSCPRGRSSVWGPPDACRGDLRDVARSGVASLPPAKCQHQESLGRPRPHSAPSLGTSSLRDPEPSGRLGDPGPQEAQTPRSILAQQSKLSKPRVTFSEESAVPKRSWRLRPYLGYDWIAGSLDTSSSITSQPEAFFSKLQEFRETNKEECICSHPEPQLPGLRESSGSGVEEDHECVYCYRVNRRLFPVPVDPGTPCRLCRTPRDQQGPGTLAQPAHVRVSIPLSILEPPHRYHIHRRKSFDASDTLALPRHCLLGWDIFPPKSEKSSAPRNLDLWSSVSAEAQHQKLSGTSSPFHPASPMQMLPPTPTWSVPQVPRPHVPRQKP
# T3: Migration and invasion inhibitory protein (MIIP), Flag-tagged, from pCMV-MIIP-Flag (UniProt Q5JXC2)
# T3 sequence: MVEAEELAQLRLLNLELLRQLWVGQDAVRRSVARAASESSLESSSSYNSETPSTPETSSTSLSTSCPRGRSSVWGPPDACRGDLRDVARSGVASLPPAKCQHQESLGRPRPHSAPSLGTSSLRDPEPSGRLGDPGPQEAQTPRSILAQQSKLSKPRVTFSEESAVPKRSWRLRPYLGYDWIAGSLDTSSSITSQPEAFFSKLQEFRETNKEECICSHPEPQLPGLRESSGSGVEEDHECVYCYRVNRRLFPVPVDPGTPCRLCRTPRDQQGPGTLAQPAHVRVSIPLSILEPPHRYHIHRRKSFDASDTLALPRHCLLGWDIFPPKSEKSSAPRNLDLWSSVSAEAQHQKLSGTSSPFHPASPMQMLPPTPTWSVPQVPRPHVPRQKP
# What was measured:
# [1] = target: T1, MIIP in HepG2 and T47-D cells (endogenous or transfected not shown) (human); assay: co-IP; HepG2 and T47-D cells with high endogenous AZGP1; antibodies not shown
# [2] = target: T2, MIIP-Flag (migration and invasion inhibitory protein, from pCMV-MIIP-Flag) (human); assay: co-IP; HCT116 cells transfected with pCMV-MIIP-Flag; immunoprecipitation with anti-Flag, immunoblot with anti-AZGP1
# [3] = target: T3, Migration and invasion inhibitory protein (MIIP), Flag-tagged, from pCMV-MIIP-Flag; assay: co-IP; HepG2 and T47-D cells transfected with pCMV-MIIP-Flag for 48 h; lysis buffer 30 mM Tris pH 7.5, 150 mM NaCl, 1% Triton X-100; immunoprecipitation with anti-Flag at 4°C, immunoblot with anti-AZGP1
# [4] = target: AZGP1-6 × His, wild type (pEX-3-AZGP1-6 × His) (human) (UniProt P25311); assay: co-IP; HCT116 co-transfected with pEX-3-AZGP1-6 × His and pCMV-MIIP-Flag for 48 h; ER protein extract; precipitated with anti-His, immunoblotted with anti-AZGP1 and anti-MIIP
# [5] = target: AZGP1-6 × His, wild type (pEX-3-AZGP1-6 × His) (human) (UniProt P25311); assay: co-IP; HCT116 and HepG2 cells overexpressing AZGP1-6 × His, with or without ectopic MIIP (pCMV-MIIP-Flag); lysates precipitated with anti-His, immunoblotted with anti-AZGP1, anti-MIIP, anti-STT3A and anti-STT3B
molecule,measurement,setting,value
"AZGP1 (alpha-2-glycoprotein 1, zinc-binding), endogenous (from UniProt P25311 21-298)",binding,[1],binds
same,binding,[2],binds
"Alpha-2-glycoprotein 1, zinc-binding (AZGP1), endogenous (from UniProt P25311 21-298)",binding,[3],binds
"MIIP-Flag (migration and invasion inhibitory protein, from pCMV-MIIP-Flag) (protein, UniProt Q5JXC2 1-388) MVEAEELAQLRLLNLELLRQLWVGQDAVRRSVARAASESSLESSSSYNSETPSTPETSSTSLSTSCPRGRSSVWGPPDACRGDLRDVARSGVASLPPAKCQHQESLGRPRPHSAPSLGTSSLRDPEPSGRLGDPGPQEAQTPRSILAQQSKLSKPRVTFSEESAVPKRSWRLRPYLGYDWIAGSLDTSSSITSQPEAFFSKLQEFRETNKEECICSHPEPQLPGLRESSGSGVEEDHECVYCYRVNRRLFPVPVDPGTPCRLCRTPRDQQGPGTLAQPAHVRVSIPLSILEPPHRYHIHRRKSFDASDTLALPRHCLLGWDIFPPKSEKSSAPRNLDLWSSVSAEAQHQKLSGTSSPFHPASPMQMLPPTPTWSVPQVPRPHVPRQKP",binding,[4],binds
"STT3A, catalytic subunit of the N-oligosaccharyl-transferase (OST) complex (enzyme, UniProt P46977 1-705) MTKFGFLRLSYEKQDTLLKLLILSMAAVLSFSTRLFAVLRFESVIHEFDPYFNYRTTRFLAEEGFYKFHNWFDDRAWYPLGRIIGGTIYPGLMITSAAIYHVLHFFHITIDIRNVCVFLAPLFSSFTTIVTYHLTKELKDAGAGLLAAAMIAVVPGYISRSVAGSYDNEGIAIFCMLLTYYMWIKAVKTGSICWAAKCALAYFYMVSSWGGYVFLINLIPLHVLVLMLTGRFSHRIYVAYCTVYCLGTILSMQISFVGFQPVLSSEHMAAFGVFGLCQIHAFVDYLRSKLNPQQFEVLFRSVISLVGFVLLTVGALLMLTGKISPWTGRFYSLLDPSYAKNNIPIIASVSEHQPTTWSSYYFDLQLLVFMFPVGLYYCFSNLSDARIFIIMYGVTSMYFSAVMVRLMLVLAPVMCILSGIGVSQVLSTYMKNLDISRPDKKSKKQQDSTYPIKNEVASGMILVMAFFLITYTFHSTWVTSEAYSSPSIVLSARGGDGSRIIFDDFREAYYWLRHNTPEDAKVMSWWDYGYQITAMANRTILVDNNTWNNTHISRVGQAMASTEEKAYEIMRELDVSYVLVIFGGLTGYSSDDINKFLWMVRIGGSTDTGKHIKENDYYTPTGEFRVDREGSPVLLNCLMYKMCYYRFGQVYTEAKRPPGFDRVRNAEIGNKDFELDVLEEAYTTEHWLVRIYKVKDLDNRGLSRT",binding,[5],binds
"STT3B, catalytic subunit of the N-oligosaccharyl-transferase (OST) complex (enzyme, UniProt Q8TCJ2 1-826) MAEPSAPESKHKSSLNSSPWSGLMALGNSRHGHHGPGAQCAHKAAGGAAPPKPAPAGLSGGLSQPAGWQSLLSFTILFLAWLAGFSSRLFAVIRFESIIHEFDPWFNYRSTHHLASHGFYEFLNWFDERAWYPLGRIVGGTVYPGLMITAGLIHWILNTLNITVHIRDVCVFLAPTFSGLTSISTFLLTRELWNQGAGLLAACFIAIVPGYISRSVAGSFDNEGIAIFALQFTYYLWVKSVKTGSVFWTMCCCLSYFYMVSAWGGYVFIINLIPLHVFVLLLMQRYSKRVYIAYSTFYIVGLILSMQIPFVGFQPIRTSEHMAAAGVFALLQAYAFLQYLRDRLTKQEFQTLFFLGVSLAAGAVFLSVIYLTYTGYIAPWSGRFYSLWDTGYAKIHIPIIASVSEHQPTTWVSFFFDLHILVCTFPAGLWFCIKNINDERVFVALYAISAVYFAGVMVRLMLTLTPVVCMLSAIAFSNVFEHYLGDDMKRENPPVEDSSDEDDKRNQGNLYDKAGKVRKHATEQEKTEEGLGPNIKSIVTMLMLMLLMMFAVHCTWVTSNAYSSPSVVLASYNHDGTRNILDDFREAYFWLRQNTDEHARVMSWWDYGYQIAGMANRTTLVDNNTWNNSHIALVGKAMSSNETAAYKIMRTLDVDYVLVIFGGVIGYSGDDINKFLWMVRIAEGEHPKDIRESDYFTPQGEFRVDKAGSPTLLNCLMYKMSYYRFGEMQLDFRTPPGFDRTRNAEIGNKDIKFKHLEEAFTSEHWLVRIYKVKAPDNRETLDHKPRVTNIFPKQKYLSKKTTKRKRGYIKNKLVFKKGKKISKKTV",binding,[5],no binding
